In patent US20170204445A1, “IN VIVO SITE-SPECIFIC PROTEIN TAGGING USING ENGINEERED SORTASE VARIANTS” (priority 2016, published 2017):

Target: HER2 on SK-BR-3 cells (Homo sapiens, UniProt P04626)
Experiment: Flow cytometry analysis of labeled nanobody binding
Conditions: SK-BR-3 breast cancer cells, 100 nM labeled probe, blocked with unlabeled Trx-5f7

B1: Trx-5f7: thioredoxin-fused nanobody 5f7 conjugated to Azp in vivo and labeled on-column with Cy3-DBCO; HER2-binding imaging agent (conjugate)
VHH: [… about 100 residues …]GSGSGHMHHHHHHSSGLVPRGSGMKETAAAKFERQHMDSPDLGTDDDDKSGMEVQLVESGGGLVQAGGSLRLSCAASGITFSINTMGWYRQAPGKQRELVALIISIGDTYYADSVKGRFTISRDNAKNTVYLQMNSLKPEDTAVYYCKRFRTAAQGTDYWGQGTQVTVSSHHHHHHLPETGG
  detection of HER2 expression: effective in detecting HER2 expression
